# The supplement of paper PMC12217912
# This is one part of the list. The full chains were built here from the parent and the listed change. Values near 0.05 are background.
# B1: TEV protease; numbered along this chain (parent)
# chain: MGESLFKGPRDYNPISSSICHLTNESDGHTTSLYGIGFGPFIITNKHLFRRNNGTLVVQSLHGVFKVKDTTTLQQHLVDGRDMIIIRMPKDFPPFPQKLKFREPQREERICLVTTNFQTKSMSSMVSDTSCTFPSGDGIFWKHWIQTKDGQCGSPLVSTRDGFIVGIHSASNFTNTNNYFTSVPKNFMELLTNQEAQQWVSGWRLNADSVLWGGHKVFMVKPEEPFQPVKEATQL
# Variants of: B1
# Test: raw area under fraction-flipped curve 0-4 h after induction (AUC4h, not background-subtracted), DNA-recorder readout of cleavage of the substrate (dimensionless); higher = more cleavage of the substrate by the protease variant
# Conditions: temperature: 34 °C; time window: 0-4 h after rhamnose induction
# Procedure: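 In vivo DNA recorder in E. coli TOP10(DE3) ΔrhaA at 34 °C. Each TEVp single-site mutant (parent TEVp 0) is paired with a single-site variant of the 7-mer TEVs (canonical ENLYFQ|S). The substrate sits between flexible linkers in a Bxb1-sfGFP-TEVs-SsrA fusion, so cleavage stabilises Bxb1 and speeds flipping of a recombination array, read by NGS. The value is the raw area under the fraction-flipped curve over 0-4 h after rhamnose induction (AUC4h), with ≥20 reads per time point. It is not background-subtracted; inactive controls average about 0.047.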
# 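Note: Bxb1 expression induced with 0.2% (w/v) L-rhamnose at OD600 near 0.5, cultures sampled hourly, flipped fraction per protease–substrate barcode pair counted by paired-end Illumina sequencing.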
Variant,area with substrate CNLYFQS,area with substrate FNLYFQS,area with substrate GNLYFQS,area with substrate HNLYFQS,area with substrate INLYFQS,area with substrate KNLYFQS,area with substrate LNLYFQS,area with substrate MNLYFQS,area with substrate PNLYFQS,area with substrate TNLYFQS,area with substrate VNLYFQS,area with substrate WNLYFQS,area with substrate NNLYFQS,area with substrate RNLYFQS,area with substrate SNLYFQS,area with substrate YNLYFQS,area with substrate QNLYFQS
MGESLFKGPRDYNPISSSICHLTNESDGHTTSLYGIGFGPFIITNKHLFRRNNGTLVVQSLHGVFKVKDTTTLQQHLVDGRDMIIIRMPKDFPPFPQKLKFREPQREERICLVTTNFQTKSMSSMVSDTSCTFPSGDGIFWKHWIQTKDGSCGSPLVSTRDGFIVGIHSASNFTNTNNYFTSVPKNFMELLTNQEAQQWVSGWRLNADSVLWGGHKVFMVKPEEPFQPVKEATQL [Q151S],0.0613,0.0609,0.0395,0.0628,0.0515,0.0554,0.0568,0.0707,0.0743,0.0687,0.0699,0.0826,,,,,
MGESLFKGPRDYNPISSSICHLTNESDGHTTSLYGIGFGPFIITNKHLFRRNNGTLVVQSLHGVFKVKDTTTLQQHLVDGRDMIIIRMPKDFPPFPQKLKFREPQREERICLVTTNFQTKSMSSMVSDTSCTFPSGDGIFWKHWIQTKDGHCGSPLVSTRDGFIVGIHSASNFTNTNNYFTSVPKNFMELLTNQEAQQWVSGWRLNADSVLWGGHKVFMVKPEEPFQPVKEATQL [Q151H],0.0582,,0.0637,0.0365,,0.0625,0.0668,,,0.043,0.0565,0.056,0.0691,,,,
MGESLFKGPRDYNPISSSICHLTNESDGHTTSLYGIGFGPFIITNKHLFRRNNGTLVVQSLHGVFKVKDTTTLQQHLVDGRDMIIIRMPKDFPPFPQKLKFREPQREERICLVTTNFQTKSMSSMVSDTSCTFPSGDGIFWKHWIQTNDGQCGSPLVSTRDGFIVGIHSASNFTNTNNYFTSVPKNFMELLTNQEAQQWVSGWRLNADSVLWGGHKVFMVKPEEPFQPVKEATQL [K148N],0.0589,0.052,0.0706,0.0628,0.0662,0.0568,0.0624,0.0714,,0.0657,0.0627,0.0548,0.0721,0.057,0.0727,0.0708,
MGESLFKGPRDYNPISSSICHLTNESDGHTTSLYGIGFGPFIITNKHLFRRNNGTLVVQSLHGVFKVKDTTTLQQHLVDGRDMIIIRMPKDFPPFPQKLKFREPQREERICLVTTNFQTKSMSSMVSDTSCTFPSGDGIFWKHWIQTTDGQCGSPLVSTRDGFIVGIHSASNFTNTNNYFTSVPKNFMELLTNQEAQQWVSGWRLNADSVLWGGHKVFMVKPEEPFQPVKEATQL [K148T],0.0598,,0.0463,0.0583,0.0729,0.0546,,,0.0439,0.0664,,,,0.0414,,,
MGESLFKGPRDYNPISSSICHLTNESDGHTTSLYGIGFGPFIITNKHLFRRNNGTLVVQSLHGVFKVKDTTTLQQHLVDGRDMIIIRMPKDFPPFPQKLKFREPQREERICLVTTNFQTKSMSSMVSDTSCTFPSGDGIFWKHWIQTKDGQCGSPLNSTRDGFIVGIHSASNFTNTNNYFTSVPKNFMELLTNQEAQQWVSGWRLNADSVLWGGHKVFMVKPEEPFQPVKEATQL [V157N],0.064,0.0491,0.0504,0.0463,0.0451,0.0582,0.0587,0.0536,0.0556,0.0498,,0.0478,0.0521,0.0563,,0.0605,
MGESLFKGPRDYNPISSSICHLTNESDGHTTSLYGIGFGPFIITNKHLFRRNNGTLVVQSLHGVFKVKDTTTLQQHLVDGRDMIIIRMPKDFPPFPQKLKFREPQREERICLVTTNFQTKSMSSMVSDTSCTFPSGDGIFWKHWIQTKDGQCGSPLRSTRDGFIVGIHSASNFTNTNNYFTSVPKNFMELLTNQEAQQWVSGWRLNADSVLWGGHKVFMVKPEEPFQPVKEATQL [V157R],0.0658,0.0533,,0.0387,0.0365,0.0544,0.0538,0.0518,0.062,0.0573,0.0611,0.0568,0.0417,0.0519,0.0771,0.0557,
MGESLFKGPRDYNPISSSICHLTNESDGHTTSLYGIGFGPFIITNKHLFRRNNGTLVVQSLHGVFKVKDTTTLQQHLVDGRDMIIIRMPKDFPPFPQKLKFREPQREERICLVTTNFQTKSMSSMVSDTSCTFPSGDGIFWKHWIQTKDGQCNSPLVSTRDGFIVGIHSASNFTNTNNYFTSVPKNFMELLTNQEAQQWVSGWRLNADSVLWGGHKVFMVKPEEPFQPVKEATQL [G153N],0.0631,,0.0505,,0.06,,0.0473,,,,,0.0526,0.0389,0.0482,0.0597,0.0449,
MGESLFKGPRDYNPISSSICHLTNESDGHTTSLYGIGFGPFIITNKHLFRRNNGTLVVQSLHGVFKVKDTTTLQQHLVDGRDMIIIRMPKDFPPFPQKLKFREPQREERICLVTTNFQTKSMSSMVSDTSCTFPSGDGIFWKHWIQTKDGQCYSPLVSTRDGFIVGIHSASNFTNTNNYFTSVPKNFMELLTNQEAQQWVSGWRLNADSVLWGGHKVFMVKPEEPFQPVKEATQL [G153Y],0.0433,0.0604,,0.0368,,,0.0638,,0.0406,0.0487,,0.0478,,,,0.0432,0.0515
MGESLFKGPRDYNPISSSICHLTNESDGHTTSLYGIGFGPFIITNKHLFRRNNGTLVVQSLHGVFKVKDTTTLQQHLVDGRDMIIIRMPKDFPPFPQKLKFREPQREERICLVTTNFQTKSMSSMVSDTSCTFPSGDGIFWKHWIQTKDGQCGSPKVSTRDGFIVGIHSASNFTNTNNYFTSVPKNFMELLTNQEAQQWVSGWRLNADSVLWGGHKVFMVKPEEPFQPVKEATQL [L156K],0.0378,,0.0451,0.0475,0.0456,0.0418,,,0.0559,0.0604,,0.052,,,0.057,,0.0361
MGESLFKGPRDYNPISSSICHLTNESDGHTTSLYGIGFGPFIITNKHLFRRNNGTLVVQSLHGVFKVKDTTTLQQHLVDGRDMIIIRMPKDFPPFPQKLKFREPQREERICLVTTNFQTKSMSSMVSDTSCTFPSGDGIFWKHWIQTKDGQCGSPLVSGRDGFIVGIHSASNFTNTNNYFTSVPKNFMELLTNQEAQQWVSGWRLNADSVLWGGHKVFMVKPEEPFQPVKEATQL [T159G],0.0156,0.0611,,,,0.0609,,0.0738,,0.0598,0.067,0.0666,0.0533,,0.0595,,
